pIC50: −log10 of the molar value. A lower IC50 marks a more sensitive line; where the fit passes the top or lowest dose, that dose stands as a limit. For AUC the same curve is integrated over the 256-fold range of doses and scaled to a fraction; it is 1 without any effect and falls as sensitivity rises. Any top dose called inferred comes from the curve model; the source does not state it. For part of these data: Drugs with an entry number were screened twice under separate entries, and the two screens often disagree.
Key:
Experiment in all cases: Viability of human cancer cell lines after 72 h of drug (GDSC screen)
SB-525334 = compound: Cc1cccc(-c2[nH]c(C(C)(C)C)nc2-c2ccc3nccnc3c2)n1 [SB-525334]; conditions: top dose 20 µM; top dose inferred
Description: (§1)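 Human cancer cell lines in 384-well plates, medium with 10% serum, drug for 72 h over a 256-fold dose range (nine 2-fold or five 4-fold steps up to the top dose). Adherent lines were fixed and stained with the nucleic acid dye Syto60, suspension lines read with resazurin; signal relative to control wells, capped at 0 and 100%. One two-parameter sigmoid per drug and line, fitted in a mixed model over all curves with the slope shared within a line.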

BMS-536924 = compound: Cc1cc(N2CCOCC2)cc2[nH]c(-c3c(NC[C@@H](O)c4cccc(Cl)c4)cc[nH]c3=O)nc12 [BMS-536924]; conditions: top dose 4 µM; screen: GDSC drug entry 1091; top dose inferred
Description: as §1

Olaparib = compound: O=C(c1cc(Cc2n[nH]c(=O)c3ccccc23)ccc1F)N1CCN(C(=O)C2CC2)CC1 [Olaparib]
Description: as §1

VX-702 = compound: NC(=O)c1ccc(N(C(N)=O)c2c(F)cccc2F)nc1-c1ccc(F)cc1F [VX-702]; conditions: top dose 2 µM; top dose inferred
Description: as §1

HG-5-113-01 = compound: CNC(=O)c1ccc(Nc2cc(Nc3ccccc3S(=O)(=O)C(C)C)c3cc[nH]c3n2)nc1 [HG-5-113-01]; conditions: top dose 10 µM; top dose inferred
Description: as §1

BIRB 0796 = compound: Cc1ccc(-n2nc(C(C)(C)C)cc2NC(=O)Nc2ccc(OCCN3CCOCC3)c3ccccc23)cc1 [BIRB 0796]; conditions: top dose 10 µM; top dose inferred
Description: as §1

Shikonin = compound: CC(C)=CC[C@@H](O)C1=CC(=O)c2c(O)ccc(O)c2C1=O [Shikonin]; conditions: top dose 16 µM; top dose inferred
Description: as §1

[1] = top dose 5 µM, screen: GDSC drug entry 1017, top dose inferred
[2] = top dose 10 µM, screen: GDSC drug entry 1495

Cell Line | AUC (SB-525334) | pIC50 (SB-525334) | AUC (BMS-536924) | pIC50 (BMS-536924) | AUC (Olaparib; [1]) | pIC50 (Olaparib; [1]) | AUC (Olaparib; [2]) | pIC50 (Olaparib; [2]) | AUC (VX-702) | pIC50 (VX-702) | AUC (HG-5-113-01) | pIC50 (HG-5-113-01) | AUC (BIRB 0796) | pIC50 (BIRB 0796) | AUC (Shikonin) | pIC50 (Shikonin)
Hey (ovary, adherent) | 0.972 | < 4.70 | 0.963 | < 5.40 | 0.961 | < 5.30 | 0.905 | < 5.00 | 0.978 | < 5.70 | 0.743 | 5.53 | 0.918 | < 5.00 | – | –
JHOS-2 (ovary, adherent) | 0.738 | 5.17 | 0.952 | < 5.40 | 0.975 | < 5.30 | 0.925 | < 5.00 | 0.973 | < 5.70 | 0.761 | 5.39 | 0.972 | < 5.00 | – | –
JHOS-3 (ovary, adherent) | 0.979 | < 4.70 | 0.888 | < 5.40 | 0.984 | < 5.30 | 0.957 | < 5.00 | 0.984 | < 5.70 | 0.863 | < 5.00 | 0.979 | < 5.00 | – | –
MDA-MB-175-VII (breast, adherent) | 0.981 | < 4.70 | 0.977 | < 5.40 | 0.988 | < 5.30 | 0.986 | < 5.00 | 0.988 | < 5.70 | 0.949 | < 5.00 | – | – | 0.608 | –
MDA-MB-468 (breast, adherent) | 0.718 | 5.30 | 0.915 | < 5.40 | – | – | – | – | 0.988 | < 5.70 | 0.663 | 5.76 | 0.893 | < 5.00 | 0.497 | 6.01
NCC021 (kidney, adherent) | 0.985 | < 4.70 | 0.905 | < 5.40 | 0.966 | < 5.30 | 0.98 | < 5.00 | 0.976 | < 5.70 | 0.857 | < 5.00 | 0.963 | < 5.00 | – | –
NCI-H292 (lung adenocarcinoma, adherent) | 0.907 | < 4.70 | 0.612 | 6.27 | 0.913 | < 5.30 | 0.835 | 5.06 | 0.957 | < 5.70 | 0.613 | 5.86 | – | – | 0.418 | 6.25
NCI-H1944 (lung adenocarcinoma, adherent) | 0.769 | 5.09 | 0.794 | 5.70 | – | – | – | – | 0.985 | < 5.70 | 0.784 | 5.34 | 0.959 | < 5.00 | 0.494 | 6.02
OACp4C (oesophagus, adherent) | 0.691 | 5.32 | 0.663 | 6.11 | 0.976 | < 5.30 | 0.952 | < 5.00 | 0.979 | < 5.70 | 0.712 | 5.55 | 0.945 | < 5.00 | – | –
OV-7 (ovary, adherent) | 0.921 | < 4.70 | 0.821 | < 5.40 | 0.871 | < 5.30 | 0.829 | < 5.00 | 0.849 | < 5.70 | 0.563 | 6.00 | 0.975 | < 5.00 | – | –

Source: the supplement of paper PMC4967469
